Data on three molecules can be found in patent US8722622B2, “FGF21 conjugates and anti-diabetic uses thereof” (COVX Technologies Ireland, Limited, priority 2010, dated 2014).

As usually defined, the EC50 is the concentration needed to bring the measured effect to its halfway point.

Data set [1] deals with ob/ob mice. The data set is described as follows: Mouse efficacy in ob/ob mice (OGTT, body weight, liver, gene expression). The format is in vivo. Here is the method:
(§1) The efficacy of FGF21 antibodies conjugates was evaluated in two murine obese insulin resistant models—ob/ob mice and high-fat diet-induced obese mice. For both models, male mice (6-8 weeks of age for ob/ob, 12-14 weeks of age for DIO with high-fat diet initiated at 6 weeks of age) were housed 2-4/cage and FGF21 antibody conjugates were administered by SC injection. Body weight was measured daily in the morning. Glucose tolerance was assessed by oral glucose tolerance test. Briefly, mice were fasted for 4-5 hrs in the morning of the day of testing. A basal blood sample was obtained and blood glucose levels were determined using a portable glucometer. Following basal sample, glucose was administered by oral gavage, and blood samples were drawn from 15 to 120 mins thereafter.
(§2) For […] expression, frozen visceral WAT samples collected from the in vivo efficacy studies were homogenized. Total RNA was extracted from the tissue homogenates, and Glut1 and GAPDH mRNA expression was measured using a Quantitect Probe RT-PCR kit and running a quantitative real time PCR reaction in a Taqman machine (Applied Biosystems). The effect of treatment was determined by a fold change in Glut1 mRNA levels normalized by the GAPDH mRNA levels from each sample.

Details of data set [2]: species or system Swiss-Webster mice. As to conditions: mouse, in vivo. Here is the method: The PK of FGF21 antibody conjugates were examined in mice after IV or SC administration. […] Antibody conjugates concentrations in serum were determined using an ELISA which captured the FGF21 portion of the antibody conjugates through a monoclonal anti-hFGF21 antibody bound to a 96-well plate. FGF21 antibody conjugates bound to the plate were detected through an anti-hFc monoclonal antibody, and concentrations were determined using a standard curve of the PK dosing solution diluted into serum-containing assay buffer. SC bioavailability was calculated as the ratio of the area-under the curve (AUC) of the SC serum concentration profile divided by the AUC of the IV serum concentration profile.

Data set [3] deals with Glut1 mRNA expression in differentiated 3T3-L1 adipocytes. The experiment in a line: Glut1 Taqman assay. It counts as cell-based. As to conditions: 6 hrs. Here is the method:
Differentiated 3T3-L1 adipocytes were used to measure the Glut1 mRNA expression by qPCR method. Overnight serum starved day 10-14 differentiated 3T3-L1 adipocytes were treated with compounds for 6 hrs. Total RNA was extracted from these cells, and Glut1 and GAPDH mRNA expression was measured using a Quantitect Probe RT-PCR kit and running a quantitative real time PCR reaction in a Taqman machine (Applied Biosystems®). The bioactivity of the compounds was determined by a fold change in Glut1 mRNA levels normalized by the GAPDH mRNA levels from each sample. EC50 values as measurements of the potency of the compounds were obtained from the dose response curves in the assay.
3T3-L1 adipocytes were seeded at day 8 in 24-well tissue culture plates (Falcon®, Cat#353047), and incubated in DMEM complete medium (10% FBS, 2 mM L-glutamine, 1% P/S) at 37° C., 5% CO2. […] The medium was aspirated, and then RNA extracted from the cells using the RNeasy mini Kit according to the manufacturer's instructions. RNA was measured at A260 nm using the Spectramax® Plus spectrophotometer.

Data set [4] can be described thus: Serum drug levels in ob/ob model. It counts as in vivo. As to conditions: ob/ob mice, 10 mg/kg and 3 mg/kg.
For data set [5], the system named is DIO mice. The data set is described as follows: Mouse efficacy in high-fat diet-induced obese (DIO) mice. It counts as in vivo. Here is the method:
as §1, §2

Data set [6] relates to ob/ob mice. The experiment in a line: Hyperinsulinemic euglycemic clamp. The format is in vivo. The settings on record: SC 10 mg/kg twice a week for one week. Here is the method:
The dosing volume was 2 mL/kg per injection. Ab-FGF21ΔH-A129C was injected on day 2 and 5 of the study. Vehicle (30 mM acetate buffer pH4.8) was administered twice a week at a dosing volume of 2 mL/kg per injection on day 2 and day 5 of the study. Mice were treated with ketprofen 2 mg/kg SC and ampicillin 100 mg/kg SC immediately before surgery. Animals (n=8 per group) were randomized according to their day 1 fasted plasma glucose and body weight.
On day 7 of the study, mice were fasted for 16 hrs before the clamp procedure on day 8. On day 8 catheters were exteriorized and animals connected to the infusion lines. 90 mins before the start of the clamp procedure (−90 min), a 6 μCi bolus of [3-3H] glucose was injected into the jugular vein followed by a 0.1 μCi/min constant infusion until the end of the clamp. Blood was collected at −10 min and 0 min for the determination of basal HGP. At time 0 min the variable glucose infusion (50% dextrose) as well as the constant infusion of insulin 20 mU/kg/min was started. Plasma glucose was measured every 10 min from the tail vein and glucose infusion rates were adjusted according to each animals glucose level until a steady state was reached. At time points 170 min and 180 min blood was collected to determine hepatic glucose production (HGP) under clamped conditions. During the clamp procedure, animals were unrestrained and conscious.
Hepatic Glucose Production (HGP) was calculated using the following formula:
HPG=Ra−Rate of cold glucose infusion, where

B1: Ab-L1-FGF21ΔH-D79C: FGF21ΔH-D79C combined with L1 at D79C and conjugated with h38C2 (conjugate)
heavy: EVQLVESGGGLVQPGGSLRLSCAASGFTFSNYWMSWVRQSPEKGLEWVSEIRLRSDNYATHYAESVKGRFTISRDNSKNTLYLQMNSLRAEDTGIYYCKTYFYSFSYWGQGTLVTVSSASTKGPSVFPLAPSSKSTSGGTAALGCLVKDYFPEPVTVSWNSGALTSGVHTFPAVLQSSGLYSLSSVVTVPSSSLGTQTYICNVNHKPSNTKVDKRV[gap - human IgG1 Fc]
light: ELQMTQSPSSLSASVGDRVTITCRSSQSLLHTYGSPYLNWYLQKPGQSPKLLIYKVSNRFSGVPSRFSGSGSGTDFTLTISSLQPEDFAVYFCSQGTHLPYTFGGGTKVEIKRTVAAPSVFIFPPSDEQLKSGTASVVCLLNNFYPREAKVQWKVDNALQSGNSQESVTEQDSKDSTYSLSSTLTLSKADYEKHKVYACEVTHQGLSSPVTKSFNRGEC
chain: PIPDSSPLLQFGGQVRQRYLYTDDAQQTEAHLEIREDGTVGGAADQSPESLLQLKALKPGVIQILGVKTSRFLCQRPCGALYGSLHFDPEACSFRELLLEDGYNVYQSEAHGLPLHLPGNKSPHRDPAPRGPARFLPLPGLPPAPPEPPGILAPQPPDVGSSDPLSMVGPSQGRSPSYAS
As to B1, the “body weight gain” value in data set [1] was “reduce body weight gain”. Besides, in data set [1], the “glucose tolerance” value is on record as “improve glucose tolerance”. The “Mean Glucose AUC (% of vehicle control)” value is reported as 53 % of vehicle control in data set [1] (OGTT day 6, SC 10 mg/kg on day 0 & 3); 53 % of vehicle control in data set [1] (OGTT day 6, SC 10 mg/kg on day 3); 87 % of vehicle control in data set [1] (OGTT day 6, SC 10 mg/kg on day 5); 67 % of vehicle control in data set [1] (OGTT day 6, SC 10 mg/kg on day 6). Further, in data set [1] (single dose 2 mg/kg (FIG. 6B)), the “mean glucose AUC % during OGTT” value was determined as 86%. In addition, in data set [1] (single dose 10 mg/kg (FIG. 6A)), the “Cumulative body weight change, mean body weight” value stood at 1.4 g. Besides, the “IV T½” value in data set [2] (iv, 3 mg/kg) worked out at 19 h. In data set [2] (sc), this molecule showed an SC half-life of 20 h.

B2: H125C (conjugate)
heavy: EVQLVESGGGLVQPGGSLRLSCAASGFTFSNYWMSWVRQSPEKGLEWVSEIRLRSDNYATHYAESVKGRFTISRDNSKNTLYLQMNSLRAEDTGIYYCKTYFYSFSYWGQGTLVTVSSASTKGPSVFPLAPSSKSTSGGTAALGCLVKDYFPEPVTVSWNSGALTSGVHTFPAVLQSSGLYSLSSVVTVPSSSLGTQTYICNVNHKPSNTKVDKRV[gap - human IgG1 Fc]
light: ELQMTQSPSSLSASVGDRVTITCRSSQSLLHTYGSPYLNWYLQKPGQSPKLLIYKVSNRFSGVPSRFSGSGSGTDFTLTISSLQPEDFAVYFCSQGTHLPYTFGGGTKVEIKRTVAAPSVFIFPPSDEQLKSGTASVVCLLNNFYPREAKVQWKVDNALQSGNSQESVTEQDSKDSTYSLSSTLTLSKADYEKHKVYACEVTHQGLSSPVTKSFNRGEC
chain: PIPDSSPLLQFGGQVRQRYLYTDDAQQTEAHLEIREDGTVGGAADQSPESLLQLKALKPGVIQILGVKTSRFLCQRPDGALYGSLHFDPEACSFRELLLEDGYNVYQSEAHGLPLHLPGNKSPCRDPAPRGPARFLPLPGLPPAPPEPPGILAPQPPDVGSSDPLSMVGPSQGRSPSYAS
Take B2: the “IV T1/2” value in data set [2] (iv) stood at 37 h. Moreover, in data set [2] (sc), the “% SC BioAv” value amounted to 67% and the “SC T1/2” value worked out at 32 h.

B3: Ab-L1-FGF21ΔH-A129C: h38C2 antibody, each arm linked through K99 of SEQ ID NO:26 to L1, each L1 conjugated to Cys129 of SEQ ID NO:9 (conjugate, listed as Homo sapiens)
heavy: ELQMTQSPSSLSASVGDRVTITCRSSQSLLHTYGSPYLNWYLQKPGQSPKLLIYKVSNRFSGVPSRFSGSGSGTDFTLTISSLQPEDFAVYFCSQGTHLPYTFGGGTKVEIKRTVAAPSVFIFPPSDEQLKSGTASVVCLLNNFYPREAKVQWKVDNALQSGNSQESVTEQDSKDSTYSLSSTLTLSKADYEKHKVYACEVTHQGLSSPVTKSFNRGEC
light: EVQLVESGGGLVQPGGSLRLSCAASGFTFSNYWMSWVRQSPEKGLEWVSEIRLRSDNYATHYAESVKGRFTISRDNSKNTLYLQMNSLRAEDTGIYYCKTYFYSFSYWGQGTLVTVSSASTKGPSVFPLAPSSKSTSGGTAALGCLVKDYFPEPVTVSWNSGALTSGVHTFPAVLQSSGLYSLSSVVTVPSSSLGTQTYICNVNHKPSNTKVDKRV[gap - human IgG1 Fc]
chain: PIPDSSPLLQFGGQVRQRYLYTDDAQQTEAHLEIREDGTVGGAADQSPESLLQLKALKPGVIQILGVKTSRFLCQRPDGALYGSLHFDPEACSFRELLLEDGYNVYQSEAHGLPLHLPGNKSPHRDPCPRGPARFLPLPGLPPALPEPPGILAPQPPDVGSSDPLSMVGPSQGRSPSYAS
modifications: FGF21 linked via L1 linker to K99 of each arm
B3: in data set [3] (3T3-L1 adipocytes, Taqman quantitative real-time PCR, read-out: Glut1 RNA expression EC50), the EC50 was found to be 1.72 nM. In data set [3], the “Glut1 induction in 3T3-L1 adipocytes” value is “dose-dependent Glut1 induction”. For the same molecule, the “serum levels 3, 4, 5 and 6 days post-dose” value in data set [4] is given as “well maintained”. For the same molecule, the “liver weight” value in data set [5] is recorded as “decreased liver weight”. In data set [6], the “effect on body weight” value was “did not demonstrate an effect on body weight”, the “effect on fasted plasma glucose” value was “no effect on fasted plasma glucose levels” and the “hepatic glucose production under clamped (hyperinsulinemic) conditions” value was “significantly suppressed HGP”. For the same molecule, in data set [6] (basal), the “basal hepatic glucose production” value is “did not alter basal hepatic glucose production”. For the same molecule, the “glucose infusion rate (GIR) vs vehicle” value in data set [6] (clamp) was “significantly increased the glucose infusion rate”.
